Measured values reported in article PMC4336329 (PLoS ONE, 2015).
The campaign covered roughly 310,000 compounds. About 14,000 (4.5%) showed an effect of 50% or more. The effect is printed as a negative number. Some of the results follow.

target: human ether-à-go-go-related gene (hERG) potassium channel (human, UniProt Q12809); assay: primary screen, population patch clamp on CHO cells stably expressing hERG
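Further: peak tail current of the secondary pulse compared with the same well before compound.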

Sequence of human ether-à-go-go-related gene (hERG) potassium channel (Q12809 whole entry, looked up): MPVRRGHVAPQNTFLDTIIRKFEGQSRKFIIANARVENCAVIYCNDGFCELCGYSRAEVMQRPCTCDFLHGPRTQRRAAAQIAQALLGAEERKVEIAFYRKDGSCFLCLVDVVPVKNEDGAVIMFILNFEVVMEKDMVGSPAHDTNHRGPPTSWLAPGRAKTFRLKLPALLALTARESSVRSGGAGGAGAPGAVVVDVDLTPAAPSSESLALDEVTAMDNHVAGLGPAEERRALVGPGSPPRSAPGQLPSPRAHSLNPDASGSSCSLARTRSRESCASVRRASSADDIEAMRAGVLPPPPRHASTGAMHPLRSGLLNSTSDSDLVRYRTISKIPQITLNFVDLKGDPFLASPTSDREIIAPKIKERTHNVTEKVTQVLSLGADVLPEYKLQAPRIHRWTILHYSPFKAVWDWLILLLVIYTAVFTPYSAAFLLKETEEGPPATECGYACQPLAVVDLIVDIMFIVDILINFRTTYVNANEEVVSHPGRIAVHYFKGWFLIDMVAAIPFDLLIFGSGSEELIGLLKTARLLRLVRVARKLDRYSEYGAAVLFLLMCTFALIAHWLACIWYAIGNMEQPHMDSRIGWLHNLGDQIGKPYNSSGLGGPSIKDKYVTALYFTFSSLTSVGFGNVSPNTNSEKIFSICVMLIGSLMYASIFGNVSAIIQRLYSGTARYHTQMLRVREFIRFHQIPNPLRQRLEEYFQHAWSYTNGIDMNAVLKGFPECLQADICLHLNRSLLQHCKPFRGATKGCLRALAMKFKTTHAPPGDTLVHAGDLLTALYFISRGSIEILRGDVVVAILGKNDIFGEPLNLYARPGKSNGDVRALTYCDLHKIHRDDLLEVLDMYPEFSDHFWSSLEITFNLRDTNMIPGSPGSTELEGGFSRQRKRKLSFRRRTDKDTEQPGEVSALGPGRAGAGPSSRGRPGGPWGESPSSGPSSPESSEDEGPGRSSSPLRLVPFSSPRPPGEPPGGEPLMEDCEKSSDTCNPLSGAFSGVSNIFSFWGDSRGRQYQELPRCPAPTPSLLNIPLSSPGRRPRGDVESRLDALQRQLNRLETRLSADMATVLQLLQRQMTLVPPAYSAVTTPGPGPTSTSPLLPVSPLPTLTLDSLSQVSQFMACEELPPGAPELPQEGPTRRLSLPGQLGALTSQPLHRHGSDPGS

Row | SMILES | hERG current change (%, negative = inhibition) at 10uM [%]
1 | COc1ccc(CCN(C(=O)C(F)(F)F)C(C(=O)NC2CCCC2)c2cccs2)cc1OC (stereo not drawn) | -13
2 | O=C(NN=C1c2ccccc2-c2ccccc21)c1ccccn1 | 5.17
3 | Cc1cccc(CN2CCN(c3nc4nonc4nc3NC3CC3)CC2=O)c1 | 7.7
4 | COCC(=O)N1CCCC(C(=O)c2ccc(Oc3ccccc3)cc2)C1 (stereo not drawn) | -34.1
5 | COC(=O)c1ccc(CN2CCCC(CCC(=O)NCc3ccc(C)o3)C2)cc1 (stereo not drawn) | -67.5
6 | Cc1nnc(SC(C(=O)c2ccccc2)c2ccccc2)[nH]c1=O (stereo not drawn) | -1.2
7 | Cc1nnc(-c2cnn(C)c2N)n1Cc1cccc(Cl)c1 | 14
8 | O=C(N/N=C/c1ccc2ccccc2c1)c1ccc(COc2ccc3c(c2)CCC3)o1 | 8.11
9 | O=C(OCc1nc2ccccc2s1)c1ccc(Br)s1 | 22.5
10 | CCn1c(C)nnc1SCC(=O)Nc1nccs1 | 9.79
11 | CC(=O)C1=C(C)NC(SCc2cccc3ccccc23)=C(C#N)C1c1ccco1 (stereo not drawn) | -7.34
12 | COc1ccc(-c2nc(N)ncc2-c2ccccc2)c(O)c1 | -7.11
13 | CCn1cc(CN2CCC(C(=O)Nc3cccc(-c4cscn4)c3)CC2)cn1 | -15.4
14 | CCCC(=O)Nc1nc(-c2ccc3c(c2)OCCO3)cs1 | -12.2
15 | O=c1[nH]c2ccc(NCc3ccc(F)cc3)cc2[nH]1 | 8.5
16 | CS(=O)(=O)N(CC(=O)N1CCc2ccccc2C1)c1ccc2c(c1)OCO2 | -11.8
17 | Cc1ccc(N(C(=O)Cc2cccs2)C(C(=O)NC2CCCC2)c2ccncc2)cc1 (stereo not drawn) | 8.09
18 | COc1ccccc1/C=C/C(=O)OCC(=O)N1c2ccccc2CC1C (stereo not drawn) | 9.81
19 | O=C(CSc1nnc(COc2ccc(Cl)cc2)o1)NC1CCCCC1 | -21.5
20 | O=c1[nH]c(=O)n(-c2ccc(F)cc2)c(O)c1C=Nc1ccccc1N1CCCC1 | -0.133
21 | Cc1cc(C)c(C#N)c(Cl)n1 | -2.53
22 | O=C(CCCSc1nc(-c2ccco2)cc(C(F)(F)F)n1)NCC1CCCO1 (stereo not drawn) | -10.4
23 | Cc1ccc(NC(=O)C2CCCN2C(=O)c2cccs2)c(C)c1 (stereo not drawn) | 12.7

Row | SMILES | hERG current change (%, negative = inhibition) at 10uM [%]
24 | O=C(O)Cn1cnc2c(=S)nc[nH]c21 | 14
25 | COc1cc(C#N)ccc1OCC(=O)Nc1ccc(C)c(S(=O)(=O)N2CCOCC2)c1 | -36.1
26 | O=C(NCc1n[nH]c(=S)n1-c1ccc(Br)cc1)c1ccc(S(=O)(=O)N2CCOCC2)cc1 | 22.9
27 | O=C(NCc1ccc2c(c1)OCO2)c1ccc(Cl)c(S(=O)(=O)NCc2ccccc2)c1 | -47.3
28 | O=C(Cc1ccccc1)NC(=S)Nc1cccc(C(F)(F)F)c1 | 15.1
29 | COc1ccccc1OCc1nn[nH]n1 | 22.2
30 | Cn1c2ccccc2c2cc(/C=C(\NC(=O)c3ccccc3)C(=O)NCC(=O)O)ccc21 | -3.42
31 | CC1(c2nnc(-c3ccncc3)o2)CC(c2cccc(Cl)c2)=NO1 (stereo not drawn) | -7.49
32 | COc1ccc(-n2nc(C(=O)NCC(=O)NC(C)C)c3ccccc3c2=O)cc1 | 13.7
33 | COc1ccc(-c2nn(-c3ccccc3)cc2C#N)cc1 | -1.94
34 | O=C(CSc1c2c(nc3cc(Cl)ccc13)CCCC2)NCc1ccco1 | -46.3
35 | Cn1ncc(Cl)c1C(=O)N1CCCc2ccccc21 | 3.22
36 | C[C@]12CC[C@@H]3c4ccc(OC(=O)c5ccccc5)cc4CC[C@H]3[C@@H]1CC[C@@H]2O | 3.61
37 | O=C(Cc1ccc(F)cc1)Oc1ccc(C(=S)N2CCCC2)cc1 | -3.36
38 | COc1ccccc1N1CCC(N2CCN(CC(C)(C)C)C(CCO)C2)CC1 (stereo not drawn) | -3.39
39 | CC1CC(C)CN(C(=O)Cn2c(=O)n(CCCC(=O)NCc3ccco3)c(=O)c3sccc32)C1 (stereo not drawn) | 12
40 | CC(C)(C)n1cnc2cc(NS(=O)(=O)c3ccc(Br)cc3)ccc21 | -31.3
41 | O=C(NCc1ccc(F)cc1)c1ccc(NC(=O)C2CCCO2)cc1 (stereo not drawn) | 3.15
42 | O=C1c2ccccc2C(=O)N1CCc1nc(-c2ccccn2)no1 | 2.78
43 | COC(=O)c1ccc(C(=O)OC)c(NC(=O)N2c3ccccc3Sc3ccccc32)c1 | 0.726
44 | CC1CCN(C(c2ccccc2)c2nnnn2C(C)(C)C)CC1.Cl (stereo not drawn) | -16
45 | Cn1ccnc1CN1CCCCC1C(=O)Nc1ccc(Oc2cccnc2)cc1 (stereo not drawn) | -6.72
